# Test results: publication PMC12136788
# The other results are listed elsewhere or left out.
# B1: chr3:125228010:125228111:-|3pUTR|ENSG00000163848|msi1|total|mutant (ssRNA)
# RNA: GGGAGUUCUACAGUCCGACGAUCAGUUCUCUUCAUAUUUCAUAACUACAUUUCAAUAAUUCUAAACUUUCUACAUUGAUUUUCCGAUACUUAUUUUUCAAGCUUGGUUUCUCAGCUGAUCAGAUGAAUUUAUUCAACUUCAAUCAACAGAGGAUUGAGCAUCA
# B2: chr17:31995613:31995700:+|CDS|ENSG00000178691|msi1_unk|total|mutant (ssRNA)
# RNA: GGGAGUUCUACAGUCCGACGAUCAGCAUGUCUGAAUUUCUUGAAUCUGAAGAUGGGGAAGCCGAACAGCAAAGAACAUACCGCCGUGGCCACAAUCGUCUGUAUUUCCACCGUGAUACCUGCUUACCUCUCCGUCCACAAGAACAACAGAGGAUUGAGCAUCA
# B3: chr6:122432834:122432935:+|3pUTR|ENSG00000025156|msi1|FALSE|unique (ssRNA)
# RNA: GGGAGUUCUACAGUCCGACGAUCAUAUAUAGAAAGAUCGGGGGUGGGAUGGGAUGGAGUGAGCCCCAUCCAGUUAGUUGGACUAGUUUUAAAUAAAGGUUUUCCGGUUUGUGUUUUUUUGAACCAUACUGUUUAGUAAAAUAACAACAGAGGAUUGAGCAUCA
# B4: chr1:37590682:37590793:-|CDS|ENSG00000134697|unk|total|mutant (ssRNA)
# RNA: GGGAGUUCUACAGUCCGACGAUCAAGCAAAGCAAGUUACCAAUGUCUCUUCUCCAUGAUCGAAUCCGGCCUCAUGUAAGAUGCCGGAUAUCCCUGGUGAUGGAAUUUCCUGGGCAAACUCCAUGCAGAUCCCUCUCUAACAUACAACAGAGGAUUGAGCAUCA
# B5: chr5:173232108:173232568:-|three_prime_utr|ENSG00000183072|control|control|control (ssRNA)
# RNA: GGGAGUUCUACAGUCCGACGAUCAAGGGGCUCCCAACAUGACCCUGAGUCCCCUGGAUUUUGCAUUCACUCCUGCGGAGACCUAGGAACUUUUUCUGUCCCACGCGCGUUUGUUCUUGCGCACGGGAGAGUUUGUGGCGGCGACAACAGAGGAUUGAGCAUCA
# B6: chrX:14865087:14865190:-|CDS|ENSG00000181544|unk|FALSE|unique (ssRNA)
# RNA: GGGAGUUCUACAGUCCGACGAUCAUAUUUUUUACUAAUCCUUCACAGUACUAAUAAAUUUGAAAUGCGUUUGAGUUUUAAACUAGGCUAUGAGAUGAAGGAUGGCCUAAGGGUCCUUAAUGGCCCUUUAAUUUUAUGGAGGCACAACAGAGGAUUGAGCAUCA
# Target: MSI1 full-length (mouse, UniProt Q61474 1-362)
# Sequence of UniProt Q61474 (Q61474 whole entry): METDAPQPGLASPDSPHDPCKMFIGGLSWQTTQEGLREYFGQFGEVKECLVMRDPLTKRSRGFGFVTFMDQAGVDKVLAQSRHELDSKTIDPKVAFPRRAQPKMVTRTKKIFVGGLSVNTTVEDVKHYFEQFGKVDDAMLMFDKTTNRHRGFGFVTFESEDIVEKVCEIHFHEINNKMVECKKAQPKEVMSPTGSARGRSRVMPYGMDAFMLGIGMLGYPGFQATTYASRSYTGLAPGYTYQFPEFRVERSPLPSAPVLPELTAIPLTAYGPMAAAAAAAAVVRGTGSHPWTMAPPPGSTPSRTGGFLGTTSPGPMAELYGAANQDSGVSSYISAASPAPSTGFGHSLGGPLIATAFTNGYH
# Assay: nsRBNS (natural sequence RNA bind-n-seq); RBNS binding buffer (assumed for nsRBNS): 25 mM Tris pH 7.5, 150 mM KCl, 3 mM MgCl2, 0.01% Triton X-100, 500 ug/ml BSA, 20 U/ml SUPERase-In, 4 C; UNK is unkempt and MSI1 is Musashi-1; names of the RNAs are library labels; protein concentration not given here; high values mean tight binding
row,Binder,binding signal [enrichment R]
1,B1,18.6
2,B2,0.473
3,B3,5.26
4,B4,0.342
5,B5,0.423
6,B6,0.596
